Substrate in the experiment: B cell receptor of hybridoma 5H10 (against DSG-3) (murine)
The experiment can be described thus: cell-based or functional assay.

A value given as a limit tells only on which side of the number the result lay.

B1: CRD-924-tesirine (Fc fusion)
chain: ELRIETKGQYDEEEMTMQQAKRRQKREWVKFAKPVREGEDNSKRNPIAKITSDYQATQKITYRISGVGIDQPPFGIFVVDKNTGDINITAIVDREETPSFLITVRALNAQGLDVEKPLILTVKILDINDNPPVFSQQIFMGEIEENSASNSLVMILNATDADEPNHLNSKIAFKIVSQEPAGTPMFLLSRNTGEVRTLTNSLDREQASSYRLVVSGADKDGEGLSTQAEVNIKVKDVNDNFPMFRGGGGSGGGGSGGGGS[human IgG1 Fc with changes and a few adjoining residues omitted here]
modifications: Tesirine conjugated by Fc-native cysteine conjugation
On to B1, for which the percent increase in cell killing produced by the tesirine conjugate over the unconjugated CRD-924 was above 90%.
